Test results reported in PubChem BioAssay AID485281 (National Center for Advancing Translational Sciences (NCATS), 2010).
The campaign covered roughly 350,000 compounds. About 260 (0.074%) were called active. Inconclusive means that the source gave no clear call. Such entries were picked first, then a sample of the others. Calls follow the shape of the dose curve; as a rule, active = well fitted inhibition curve with a large enough effect; inconclusive = small, poorly fitted or top-dose-only effect; inactive = no such curve, though single readings can be large or run the other way. Potencies of inconclusive entries are doubtful fits and often do not repeat.
% is scaled to controls: 0 for no effect and ±100 for the full control effect; potency is read from the fitted curve at half-maximal effect; tags tell the direction and shape of the fitted curve.
Also: nearly all actives have a fitted effect of over 20% in size.

These compounds were tested against Ferritin light chain (Equus caballus) (UniProt P02791) (assay: qHTS Assay for Identification of Novel General Anesthetics). Conditions: apoferritin/1-aminoanthracene competitive binding, fluorescence; activity change, negative = displacement: at 77.5 µM (top of the series).
Sequence of UniProt P02791 (P02791 whole entry, looked up): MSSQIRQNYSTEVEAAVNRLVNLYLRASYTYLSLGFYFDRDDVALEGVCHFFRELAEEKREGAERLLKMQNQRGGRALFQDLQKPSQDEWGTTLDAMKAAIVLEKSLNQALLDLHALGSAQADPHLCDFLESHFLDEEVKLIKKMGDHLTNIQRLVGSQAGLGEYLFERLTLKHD
Summary of the method: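 Read-out: endpoint 1-AMA fluorescence, excitation 380 nm and emission 535 nm, after compounds sit 10 min at room temperature with 10 uM horse-spleen apoferritin in 50% saturated 1-AMA/PBS. Values come from four-parameter Hill fits.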
In the case of `O=C(CCCn1c(=O)[nH]c2ccsc2c1=O)N1CCN(c2cccc(C(F)(F)F)c2)CC1`, the Potency is reported as inconclusive: 31.6 µM [inhibitor, partial curve]. For `CCc1nnc(NC(=O)CSc2ncc(-c3ccccc3)n2C)s1`, the Potency was inconclusive: 28.2 µM [inhibitor, partial curve]. In the case of `Cc1ccc(C)c(NC(=O)c2nnn(Cc3ccccc3C)c2N)c1`, the Potency is reported as inconclusive: 28.2 µM [inhibitor, partial curve]. `Fc1ccccc1Nc1nc2c(s1)CCc1ccccc1-2` was tested, and the Potency was inconclusive: 15.8 µM [inhibitor, partial curve]. `O=C(NC(=S)Nc1cccc(Cl)c1N1CCCCC1)c1cccs1` was tested, and the Potency was inconclusive: 12.6 µM [inhibitor, partial curve]. `O=C(CSC(=S)N1CCCC1)c1ccccc1` was tested, and the Potency was inconclusive: 15.8 µM [inhibitor, partial curve]. `Cc1cc(C)cc(N=C(NO)c2cccc([N+](=O)[O-])c2)c1` was tested, and the Potency was inconclusive: 31.6 µM [inhibitor, partial curve]. In the case of `O=C(CCC(=O)c1cccs1)OCc1nnc(-c2ccccc2)o1`, the Potency is reported as inconclusive: 31.6 µM [inhibitor, partial curve]. With `O=C(CCCSc1ccccc1)Nc1nc(-c2ccccn2)cs1` the Potency was inconclusive: 39.8 µM [inhibitor, partial curve]. `CC(/C=C/c1ccccc1)=N/O` was tested, and the Potency was inconclusive: 39.8 µM [inhibitor, partial curve]. `COc1ccc(/C=C2/SC(=S)N(CCCC(=O)Nc3ccc(O)cc3)C2=O)cc1` was tested, and the Potency was inconclusive: 14.1 µM [inhibitor, partial curve]. In the case of `CC(C)(C)NC(=O)c1ccc2c(c1)C(=O)N(Cc1ccco1)C2=O`, the Potency is reported as inconclusive: 31.6 µM [inhibitor, single point]. With `OCCN(CCO)CC(O)COc1ccc(C23CC4CC(CC(C4)C2)C3)cc1` (centres undefined) the Potency was inconclusive: 14.1 µM [inhibitor, partial curve]. `O=C(O)CC(Sc1n[nH]c(=S)s1)C(=O)O` (centres undefined) was tested, and the “activity change, negative = displacement” value was inactive: 29.6%. `Cc1ccc(NC(=O)CSc2nccn2Cc2ccc3c(c2)OCO3)c(C)c1` was tested, and the Potency was inconclusive: 35.5 µM [inhibitor, partial curve]. With `CC1(NC(=O)C2CCCCC2)CCS(=O)(=O)C1` (centres undefined) the “activity change, negative = displacement” value was inactive: -6.14%. For `CCc1ccccc1NC(=O)c1cccc(N2C(=O)C3C4CCC(C4)C3C2=O)c1` (centres undefined), the Potency was inconclusive: 31.6 µM [inhibitor, partial curve]. `Cc1ccc(C2=NS(=O)(=O)N(C)C(C(=O)NCc3cccs3)=C2)cc1` was tested, and the Potency was inconclusive: 20 µM [inhibitor, partial curve]. With `COC(=O)c1c(NC(=O)CC2SC(N)=NC2=O)sc2c1CCC(C(C)(C)C)C2` (centres undefined) the Potency was inconclusive: 11.2 µM [inhibitor, partial curve]. With `CCOc1ccc(NS(=O)(=O)c2ccc(NS(=O)(=O)c3ccccc3)cc2)cc1` the Potency was inconclusive: 39.8 µM [inhibitor, partial curve]. For `CCCc1c(C(=O)N/N=C/C(C)=C/c2ccco2)nnn1-c1nonc1N`, the Potency was inconclusive: 35.5 µM [inhibitor, single point]. In the case of `COc1ccc(Cl)cc1NC(=O)Cn1nnc(C(=O)NCc2ccc3c(c2)OCO3)c1N`, the Potency is reported as inconclusive: 3.55 µM [inhibitor, full curve]. With `COC(=O)c1sccc1S(=O)(=O)N1CCN(c2ccc(C(C)=O)cc2)CC1` the Potency was inconclusive: 56.2 µM [inhibitor, single point]. For `CCOCCc1nn2c(=O)cc(COC(=O)c3cccc(C)c3)nc2s1`, the Potency was inconclusive: 22.4 µM [inhibitor, partial curve]. `CN(CCC#N)C(=O)COC(=O)c1c2c(nc3ccccc13)/C(=C/c1ccco1)CC2` was tested, and the “activity change, negative = displacement” value was inactive: 8%. For `CCOc1ccc2nc(NC(=O)c3ccoc3C)sc2c1`, the Potency was inconclusive: 50.1 µM [inhibitor, single point]. `C1=Nc2c(Nc3ccccc3)ncnc2Oc2ccccc21` was tested, and the Potency was inconclusive: 31.6 µM [inhibitor, single point]. With `Cc1cc(Br)ccc1SCC(=O)OCC(=O)Nc1ncc(C(F)(F)F)cc1Cl` the Potency was inconclusive: 14.1 µM [inhibitor, partial curve]. For `O=C(CCN1C(=O)C2C3CCC(C3)C2C1=O)OCC(=O)c1ccc(Br)cc1` (centres undefined), the Potency was inconclusive: 7.94 µM [inhibitor, partial curve]. `CCn1c(O)c(N=NC(=O)c2ccc(CSc3nncn3C)cc2)c2ccccc21` was tested, and the Potency was inconclusive: 15.8 µM [inhibitor, partial curve]. For `Cc1nn(C)c(C)c1NC(=O)CC12CC3CC(CC(C3)C1)C2`, the Potency was inconclusive: 44.7 µM [inhibitor, single point]. `CC(=O)Nc1cccc(NC(=O)Cc2csc(COc3cccc(C)c3)n2)c1` was tested, and the Potency was inconclusive: 14.1 µM [inhibitor, partial curve]. In the case of `Cc1cc(C(C)(C)C)ccc1OCCn1ccnc1`, the Potency is reported as inconclusive: 35.5 µM [inhibitor, partial curve]. With `COc1cccc(NC(=O)CN(C)CC(=O)Nc2ccc3c(c2)CCC3)c1` the Potency was inconclusive: 35.5 µM [inhibitor, single point]. For `O=C(NCc1ccc2c(c1)OCO2)c1ccc(NS(=O)(=O)c2ccc3c(c2)OCCO3)cc1`, the Potency was inconclusive: 35.5 µM [inhibitor, single point]. For `CCOc1ccc(C(=O)Nc2ccc3c(c2)N(C(C)=O)CCC3)cc1OCC`, the Potency was inconclusive: 2.82 µM [inhibitor, partial curve]. With `C=CCn1c(Cc2cccs2)nnc1SCC(=O)c1ccc(F)cc1` the Potency was inconclusive: 31.6 µM [inhibitor, partial curve]. With `Cc1ccc(-n2nc3c(N4CCC(C(=O)N(C)Cc5ccccc5)CC4)nnc(C)c3c2C)cc1` the Potency was inconclusive: 6.31 µM [inhibitor, full curve]. `O=C(NCCN1CCCCC1)c1ccc(Cn2c(SCc3ccc(F)cc3)nc3cccnc32)cc1` was tested, and the “activity change, negative = displacement” value was inactive: -4.16%. `CN1CCN(C(=S)c2cn(Cc3ccc(F)cc3)c3ccccc23)CC1` was tested, and the Potency was inconclusive: 35.5 µM [inhibitor, single point]. In the case of `Cc1cccc(C(=O)O/N=C2\CCCc3ccccc32)c1`, the Potency is reported as inconclusive: 28.2 µM [inhibitor, partial curve]. `Cc1occc1C(=O)NC1CCCN(Cc2ccc(CC(C)C)cc2)C1` (centres undefined) was tested, and the Potency was inconclusive: 31.6 µM [inhibitor, single point]. `CC(=O)c1cc(-c2ccccc2)n(CC(=O)N2CCN(C3CCCC3)CC2)c1C` was tested, and the “activity change, negative = displacement” value was inactive: 5.16%. In the case of `CCOCCCNC(=O)c1cn(C)c2ccc(S(=O)(=O)N(C)C3CCCCC3)cc2c1=O`, the Potency is reported as inconclusive: 39.8 µM [inhibitor, partial curve]. In the case of `C/C(=N/Nc1cc(-c2ccccc2)nc(-c2ccccc2)n1)c1ccc(O)cc1`, the “activity change, negative = displacement” value is reported as inactive: -12.5%. With `C/C(CC(=O)Nc1cccc(C(F)(F)F)c1)=N\NC(=O)C(=O)NCC(C)C` the Potency was inconclusive: 35.5 µM [inhibitor, partial curve]. With `COc1ccc(CCNC(=O)Cn2c(=O)n(-c3cc(F)ccc3F)c(=O)c3sccc32)cc1OC` the “activity change, negative = displacement” value was inactive: -8.28%. With `O=C(COc1ccc(Br)cc1)N1CCN(c2ccc([N+](=O)[O-])c(N3CCCCC3)c2)CC1` the Potency was inconclusive: 20 µM [inhibitor, single point]. In the case of `CCCOC(=O)c1ccc(NC(=O)C2C3C=CC(O3)C2C(=O)O)cc1` (centres undefined), the “activity change, negative = displacement” value is reported as inactive: -20.2%. With `CCn1c(NCc2ccc3c(c2)OCO3)nc2ccccc21` the Potency was inconclusive: 28.2 µM [inhibitor, partial curve]. For `CC1CCN(C(C)C(=O)Nc2ccccc2-c2ccccc2)CC1` (centres undefined), the Potency was inconclusive: 12.6 µM [inhibitor, partial curve]. In the case of `O=C(CSCSCC(=O)Nc1ccc2c(c1)OCO2)Nc1ccc2c(c1)OCO2`, the Potency is reported as inconclusive: 28.2 µM [inhibitor, single point]. With `COc1ccc(OCCOC(=O)Nc2ccccc2)cc1` the Potency was inconclusive: 12.6 µM [inhibitor, partial curve]. For `Cc1ccc(Cn2ccnc2SCC(=O)Nc2nnc(C)s2)cc1`, the Potency was inconclusive: 25.1 µM [inhibitor, partial curve]. For `Cc1noc2ncnc(Oc3ccc4ccccc4c3)c12`, the Potency was inconclusive: 25.1 µM [inhibitor, partial curve]. `CCN(CC)S(=O)(=O)c1ccc2c(c1)nc(CN(C)C(=O)Nc1ccc(C)c(F)c1)n2C` was tested, and the Potency was inconclusive: 31.6 µM [inhibitor, partial curve]. With `Cn1c(=O)c2c(nc(SCC(=O)c3cccs3)n2Cc2ccc(F)cc2)n(C)c1=O` the Potency was inconclusive: 39.8 µM [inhibitor, partial curve]. In the case of `CCOC(=O)C1CCCN(C(=O)Cn2ncc3c4ccccc4n(Cc4ccccc4)c3c2=O)C1` (centres undefined), the “activity change, negative = displacement” value is reported as inactive: 172%. `CC(=O)NC(C)C(=O)OCC(=O)c1ccc(Cl)s1` (centres undefined) was tested, and the Potency was inconclusive: 35.5 µM [inhibitor, partial curve]. With `CCOC(=O)c1c(C)[nH]c(N=Nc2ccc(C)cc2)c1C` the Potency was inconclusive: 35.5 µM [inhibitor, partial curve]. `O=C(COC(=O)c1cccnc1Cl)Nc1cc(S(=O)(=O)N2CCCCC2)ccc1Cl` was tested, and the Potency was inconclusive: 28.2 µM [inhibitor, partial curve]. For `CC(C)(C)NC(=O)NC(=O)CSc1nnc(COc2ccccc2Cl)o1`, the Potency was inconclusive: 35.5 µM [inhibitor, partial curve]. `Cc1ccc2c(CC(=O)OC(C)C(=O)Nc3ncc(Cl)cc3Cl)coc2c1` (centres undefined) was tested, and the Potency was inconclusive: 35.5 µM [inhibitor, single point]. For `O=C(Nc1ccc(Nc2ccccc2)cc1)C(Cl)Cl`, the Potency was inconclusive: 31.6 µM [inhibitor, partial curve].
